Measurements taken from PubChem BioAssay (NCI).
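Grown in 96-well plates, cells were treated for 48 hours with each compound at five concentrations. Insufficient inhibition: endpoint recorded as highest concentration tested. At the GI50, growth is halved. The concentration for full growth arrest is given as TGI.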

System: NCI-H322M lung
Test: NCI-60 cell line screen, 48 h

What does the source list for `N#Cc1c(NC(=O)c2cccc(C(F)(F)F)c2F)sc2c1CCC(=O)C2`?
GI50: 2980 nM; TGI: > 70400 nM

`[Cl][Ru].c1ccc(-c2cc(-c3ccccn3)nc(-c3ccccn3)c2)cc1.c1ccc(-c2ccnc3c2ccc2c(-c4ccccc4)ccnc23)cc1` was tested. Which GI50 did it give?
Its GI50 is 429 nM.

And the TGI?
Its TGI is 2780 nM.

How did the GI50 turn out when `CCOC(=O)c1c(NC(=O)c2cccc(C(F)(F)F)c2)sc2c(CN3CCN(C)CC3)c(O)ccc12` was run?
Its GI50 is 1570 nM.

And the TGI?
The TGI was 2980 nM.
